{
  "source": "the supplement of paper PMC4604168 (melanoma cell lines)",
  "note": "The other results are listed elsewhere or left out. Single values are uncertain, as repeats are few or missing.",
  "data": [
    {"system": "IPC-298", "assay": "cell count relative to DMSO control; higher = more viable cells", "conditions": "library dose: standard library concentration; 72 h", "units": {"cell count": "%"}, "values": [
      {"compound": "Nc1cccc2c1CN(C1CCC(=O)NC1=O)C2=O", "note": "(stereo unspecified) [lenalidomide] + NC(=O)Nc1cc(-c2cccc(F)c2)sc1C(=O)N[C@H]1CCCNC1 [AZD7762] (first compound 5 µM, partner dose 0.1 µM);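 further: cells treated in 1,536-well plates, then fixed and DAPI-stained, with nuclei counted from automated high-throughput microscope images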", "cell count": 91.9},
      {"compound": "COCC[n+]1c2c(n(Cc3cnccn3)c1C)C(=O)c1ccccc1C2=O", "note": "+ COc1ccc2c(c1)CCC1C2CCC2(C)C(NCCCCCCN3C(=O)C=CC3=O)CCC12 [U73122] (first compound 0.002 µM, partner dose 2 µM)", "cell count": 126},
      {"compound": "C#Cc1cccc(Nc2ncnc3cc(OCCOC)c(OCCOC)cc23)c1", "note": "[erlotinib] + COCC[n+]1c2c(n(Cc3cnccn3)c1C)C(=O)c1ccccc1C2=O [YM155] (first compound 4 µM, partner dose 0.002 µM)", "cell count": 30.1},
      {"compound": "Clc1ccc(Nc2nnc(Cc3ccncc3)c3ccccc23)cc1", "note": "[vatalanib] + CCc1ccc(CCOc2ccc(CC3SC(=O)NC3=O)cc2)nc1 [pioglitazone] (first compound 10 µM, partner dose 10 µM)", "cell count": 69.7},
      {"compound": "C#Cc1cccc(Nc2ncnc3cc(OCCOC)c(OCCOC)cc23)c1", "note": "[erlotinib] + CO[C@@H]1[C@H](N(C)C(=O)c2ccccc2)C[C@H]2O[C@]1(C)n1c3ccccc3c3c4c(c5c6ccccc6n2c5c31)C(=O)NC4 [Midostaurin] (first compound 4 µM, partner dose 0.4 µM)", "cell count": 59.8}
    ]},
    {"system": "IST-MEL1", "assay": "cell count relative to DMSO control; melanoma cells; higher = more viable cells", "conditions": "library dose: standard library concentration; 72 h", "units": {"cell count": "%"}, "values": [
      {"compound": "COCC[n+]1c2c(n(Cc3cnccn3)c1C)C(=O)c1ccccc1C2=O", "note": "+ CCc1ccc(CCOc2ccc(CC3SC(=O)NC3=O)cc2)nc1 [pioglitazone] (first compound 0.002 µM, partner dose 10 µM)", "cell count": 43.8},
      {"compound": "Clc1ccc(Nc2nnc(Cc3ccncc3)c3ccccc23)cc1", "note": "[vatalanib] + Oc1cc(-c2nc(-c3ccccc3)[nH]c2-c2ccncc2)ccc1Cl [L779450] (first compound 10 µM, partner dose 1 µM)", "cell count": 76.2},
      {"compound": "Clc1ccc(Nc2nnc(Cc3ccncc3)c3ccccc23)cc1", "note": "[vatalanib] + Cn1cc(/C=C2\\C(=O)Nc3cccnc32)c2ccccc21 [GW441756] (first compound 10 µM, partner dose 2 µM)", "cell count": 81.6},
      {"compound": "Nc1cccc2c1CN(C1CCC(=O)NC1=O)C2=O", "note": "(stereo unspecified) [lenalidomide] + O=S(=O)(c1ccccc1)N(CC(F)(F)F)c1ccc(C(O)(C(F)(F)F)C(F)(F)F)cc1 [T0901317] (first compound 5 µM, partner dose 7 µM)", "cell count": 86.6},
      {"compound": "Nc1cccc2c1CN(C1CCC(=O)NC1=O)C2=O", "note": "(stereo unspecified) [lenalidomide] + CN(C)S(=O)(=O)c1ccc2c(c1)/C(=C/c1cc3c([nH]1)CCCC3)C(=O)N2 [SU6656] (first compound 5 µM, partner dose 2 µM)", "cell count": 99.5},
      {"compound": "C#Cc1cccc(Nc2ncnc3cc(OCCOC)c(OCCOC)cc23)c1", "note": "[erlotinib] + COc1cc(Nc2ncc(F)c(Nc3ccc4c(n3)NC(=O)C(C)(C)O4)n2)cc(OC)c1OC [Tamatinib] (first compound 4 µM, partner dose 2 µM)", "cell count": 77.3},
      {"compound": "Nc1cccc2c1CN(C1CCC(=O)NC1=O)C2=O", "note": "(stereo unspecified) [lenalidomide] + CC(C)(C)c1cnc(CSc2cnc(NC(=O)C3CCNCC3)s2)o1 [SNS-032] (first compound 5 µM, partner dose 0.05 µM)", "cell count": 95.9},
      {"compound": "O=C(CCCCCCC(=O)Nc1ccccc1)NO", "note": "[vorinostat] + CC(C)(C)c1cnc(CSc2cnc(NC(=O)C3CCNCC3)s2)o1 [SNS-032] (first compound 0.4 µM, partner dose 0.05 µM)", "cell count": 99.6},
      {"compound": "Clc1ccc(Nc2nnc(Cc3ccncc3)c3ccccc23)cc1", "note": "[vatalanib] + O=C(Nc1ccccc1)c1cc([N+](=O)[O-])ccc1Cl [GW9662] (first compound 10 µM, partner dose 10 µM)", "cell count": 67.7},
      {"compound": "COCC[n+]1c2c(n(Cc3cnccn3)c1C)C(=O)c1ccccc1C2=O", "note": "+ COc1cc(N2CCC(N3CCN(C)CC3)CC2)ccc1Nc1ncc(Cl)c(Nc2ccccc2S(=O)(=O)C(C)C)n1 [NVP-TAE684] (first compound 0.002 µM, partner dose 0.4 µM)", "cell count": 47.2},
      {"compound": "O=C(CCCCCCC(=O)Nc1ccccc1)NO", "note": "[vorinostat] + COc1ccc(-c2ccc3c(N4CCOCC4)nc(N4C[C@@H](C)O[C@@H](C)C4)nc3n2)cc1CO [KU0063794] (first compound 0.4 µM, partner dose 0.1 µM)", "cell count": 102}
    ]}
  ]
}
